Here are results for 64 molecules from article PMC6919601, “Identification of Plasmodium dipeptidyl aminopeptidase allosteric inhibitors by high throughput screening” (PLoS ONE, 2019).

The whole screen tested about 110,000 compounds, of which about 230 (0.21%) showed an effect of 50% or more. Some of the results follow.
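Note: 30 min substrate incubation versus DMSO and 10 µM JCP410 controls.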

This assay deals with DPAP1 (Plasmodium falciparum, UniProt Q8IIJ9). Description: primary screen, percent inhibition; read by cleavage of a fluorogenic dipeptide substrate; higher = more effect of the substance. More on the design: species or system P. falciparum D10 trophozoite lysates; single well.
DPAP1, sequence (Q8IIJ9 whole entry, looked up): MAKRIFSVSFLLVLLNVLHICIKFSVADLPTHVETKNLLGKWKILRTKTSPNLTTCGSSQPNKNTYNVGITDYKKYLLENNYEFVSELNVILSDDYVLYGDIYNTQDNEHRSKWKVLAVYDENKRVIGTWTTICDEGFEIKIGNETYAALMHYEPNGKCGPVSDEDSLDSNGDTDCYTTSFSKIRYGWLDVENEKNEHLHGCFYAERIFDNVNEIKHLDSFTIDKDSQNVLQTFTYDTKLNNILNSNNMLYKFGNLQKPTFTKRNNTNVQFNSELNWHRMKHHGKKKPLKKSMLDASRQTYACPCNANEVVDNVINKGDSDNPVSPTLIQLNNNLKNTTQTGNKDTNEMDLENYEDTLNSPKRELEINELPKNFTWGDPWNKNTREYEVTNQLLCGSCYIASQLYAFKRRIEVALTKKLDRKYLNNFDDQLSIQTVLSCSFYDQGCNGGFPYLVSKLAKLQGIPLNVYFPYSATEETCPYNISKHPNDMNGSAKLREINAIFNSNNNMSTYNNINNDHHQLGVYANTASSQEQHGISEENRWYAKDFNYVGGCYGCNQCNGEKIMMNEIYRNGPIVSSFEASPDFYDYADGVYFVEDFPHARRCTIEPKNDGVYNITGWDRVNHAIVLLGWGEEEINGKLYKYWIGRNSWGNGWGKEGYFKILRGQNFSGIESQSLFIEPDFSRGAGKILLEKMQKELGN
On to `COc1ccc(-c2noc(N3CCC(C(=O)NCCCN4CCCC4=O)CC3)n2)cc1`, for which the “% Inhibition @ 10 uM” value amounted to 2.25%.

As for `Cc1cc(C)cc(OCc2nc(-c3ccc(-n4cccc4)cc3)no2)c1`, the “% Inhibition @ 10 uM” value is listed as -0.828%.

As to `Cc1ccc2oc(Nc3nc(C)cc(C)n3)nc2c1`, the “% Inhibition @ 10 uM” value is -5.71%.

Take `CSC(SC)=C(C(=O)c1ccccc1)[n+]1ccccc1`: the “% Inhibition @ 10 uM” value was -3.63%.

For the molecule `Cc1cccc(Nc2nc3c(s2)CCC3)c1`, the “% Inhibition @ 10 uM” value came to 12%.

With `CO/C(O)=C1\C(C)=NC2=C(C(=O)CC(C)(C)C2)C1c1cccc(O)c1` (stereo not shown), the “% Inhibition @ 10 uM” value is reported as 5.7%.

In the case of `COc1ccc(S(=O)(=O)N2CC(C)OC(C)C2)cc1` (stereo not shown), the “% Inhibition @ 10 uM” value is reported as -1.54%.

For the molecule `Cc1cc(Cl)ccc1NC(=O)COc1ccc(S(=O)(=O)NC2CCCC2)cc1`, the “% Inhibition @ 10 uM” value is 2.5%.

For the molecule `Cc1ccccc1Cc1c(C)nc2c(C(=O)N3CCC4(CC3)OCCO4)cnn2c1C`, the “% Inhibition @ 10 uM” value is reported as -3.94%.

As to `N#C[C@H](COC(=O)Nc1ccccc1)NC(=O)[C@H](CC1CCCCC1)NC(=O)OCc1ccccc1`, the “% Inhibition @ 10 uM” value was 1.71%.

For `COc1ccc(C2C(C#N)=C(N)Oc3cc(N)ccc32)c(OC)c1` (stereo not shown), the “% Inhibition @ 10 uM” value is recorded as 4.6%.

As to `O=C(C1=C(O)C(=O)N(CCCn2ccnc2)C1c1ccc(Cl)c(Cl)c1)c1cc2ccccc2o1` (stereo not shown), the “% Inhibition @ 10 uM” value is given as -6.68%.

`CC(NC(=O)c1cc2ccccc2o1)c1ccccc1` (stereo not shown): the “% Inhibition @ 10 uM” value is listed as -6.06%.

As for `O=C(NC(=S)N1CCOCC1)C12CC3CC(CC(C3)C1)C2`, the “% Inhibition @ 10 uM” value came out at 1.9%.

In the case of `Cc1c(CNCc2ccc(OC(C)C)cc2)c(C(=O)O)c(C)n1Cc1cccc(Cl)c1`, the “% Inhibition @ 10 uM” value is given as -0.23%.

Take `CCOC(=O)c1cnc2ccc(OCC)cc2c1N1CCCC(C)C1` (stereo not shown): the “% Inhibition @ 10 uM” value was -0.631%.

Regarding `NC(=O)c1ccccc1NC(=O)c1ccccc1C(=O)O`, the “% Inhibition @ 10 uM” value is 2.13%.

With `CCC[C@H](NC(=O)C(Cc1c(F)cccc1F)NC(=O)c1ccc(-c2ccccc2Cl)cc1)C(=O)c1nnc(C(C)(C)C)o1` (stereo partly shown), the “% Inhibition @ 10 uM” value is -5.2%.

Regarding `O=C1C2C3C=CC(C3)C2C(=O)N1c1ccccc1` (stereo not shown), the “% Inhibition @ 10 uM” value was -0.0369%.

Turning to `COc1ccccc1C(=O)ON1C(=O)c2ccccc2C1=O`, the “% Inhibition @ 10 uM” value is 2.68%.

With `CCOC(=O)c1cnc2cc(-c3ccc(Br)cc3)nn2c1-c1ccccc1`, the “% Inhibition @ 10 uM” value was -0.169%.

On to `CS(=O)(=O)N(CC(=O)Nc1cc(C(F)(F)F)ccc1Cl)Cc1ccccc1`, for which the “% Inhibition @ 10 uM” value was -1.82%.

For `O=C(c1ccccc1)N(CCCO)CC(O)Cn1c2ccccc2c2ccccc21` (stereo not shown), the “% Inhibition @ 10 uM” value was -6.94%.

With `CC1(C)CC(=O)c2sc(N3CCOCC3)nc2C1`, the “% Inhibition @ 10 uM” value is 2.05%.

In the case of `Cc1cc(NCc2ccccc2)c2ccccc2n1`, the “% Inhibition @ 10 uM” value worked out at 0.343%.

On to `Cc1ccc(C)c(N(CC(=O)NC2CCCC2)S(=O)(=O)c2ccccc2)c1`, for which the “% Inhibition @ 10 uM” value came out at 0.793%.

On to `O=C(Nc1ccccn1)c1ccc(N2C(=O)C3C4C=CC(C4)C3C2=O)cc1` (stereo not shown), for which the “% Inhibition @ 10 uM” value is reported as -2.58%.

For `Cc1ccc(C(C)NC(=O)c2cccs2)cc1C` (stereo not shown), the “% Inhibition @ 10 uM” value was -4.02%.

Take `Clc1cccc(-c2nc(N3CCOCC3)nc3c2COc2ccccc2-3)c1`: the “% Inhibition @ 10 uM” value is listed as 2.32%.

As to `CN(C)c1ccc(C(=C2CN3CCC2CC3)c2ccc(N(C)C)cc2)cc1`, the “% Inhibition @ 10 uM” value is 4.69%.

As to `CC(O)Cn1c2ccccc2c2ccccc21` (stereo not shown), the “% Inhibition @ 10 uM” value is given as 3.85%.

With `Cc1cc(NC(=O)CNC(=O)c2ccccc2)no1`, the “% Inhibition @ 10 uM” value is -1.81%.

As for `CC1=C(c2ccc(C)cc2)S(=O)(=O)N=C1N1CCN(C2CCCCC2)CC1`, the “% Inhibition @ 10 uM” value is reported as -1.08%.

On to `Cc1ccc(CN2CCNC(=O)C2CC(=O)O)o1` (stereo not shown), for which the “% Inhibition @ 10 uM” value is 5.54%.

`COc1ccccc1N(CC(=O)NCc1ccco1)S(C)(=O)=O`: the “% Inhibition @ 10 uM” value is on record as -2.8%.

Take `COCCCn1c(=O)c2sccc2n2c(CCCC(=O)N3CCN(c4ncccn4)CC3)nnc12`: the “% Inhibition @ 10 uM” value was -5.95%.

For the molecule `CCOC(=O)c1cnc2ccc(Br)cc2c1NCCc1ccc(OC)c(OC)c1`, the “% Inhibition @ 10 uM” value is reported as -4.84%.

Turning to `CCOC(=O)c1cc(-c2ccc(F)cc2)n(CC(=O)N2C(C)CCCC2C)c1C` (stereo not shown), the “% Inhibition @ 10 uM” value stood at 3.07%.

On to `O=C(O)c1cccc(S(=O)(=O)N2CCCCC2)c1`, for which the “% Inhibition @ 10 uM” value was found to be 3.74%.

On to `Cc1ccccc1C(=O)NC1CCCCC1NC(=O)c1ccccc1C` (stereo not shown), for which the “% Inhibition @ 10 uM” value worked out at 1.28%.

With `CCN(CC)CCNC(=O)c1ccccc1NC(=O)Nc1cccc(C(F)(F)F)c1`, the “% Inhibition @ 10 uM” value was -6.25%.

`CC1CCCC(N2CCN(c3ccc(Cl)cc3)CC2)C1` (stereo not shown): the “% Inhibition @ 10 uM” value amounted to 1.57%.

Regarding `Cc1ccc(CNC(=O)Nc2nnc(N(C)Cc3ccccc3)s2)cc1`, the “% Inhibition @ 10 uM” value stood at 6.91%.

With `COCc1nc2ccccc2n1CCC1CCCCC1`, the “% Inhibition @ 10 uM” value is given as -2.5%.

Take `Fc1ccccc1C1CC(c2ccc(Cl)cc2OC(F)F)Nc2ncnn21` (stereo not shown): the “% Inhibition @ 10 uM” value is -8.88%.

Turning to `O=C1C(/C=N/c2[nH]ncc2-c2ccccc2)=C(O)c2ccccc21`, the “% Inhibition @ 10 uM” value is -4.76%.

Regarding `CCc1nnc(NC(=O)c2cc(Cl)ccc2Cl)s1`, the “% Inhibition @ 10 uM” value is 9.19%.

Regarding `O=C(c1cccs1)N(Cc1cccc(F)c1)C1CCS(=O)(=O)C1` (stereo not shown), the “% Inhibition @ 10 uM” value amounted to 3.62%.

With `CCOC(=O)N1CCN(C2CC(=O)N(c3cccc(Br)c3)C2=O)CC1` (stereo not shown), the “% Inhibition @ 10 uM” value is on record as -0.725%.

`Cc1ccc(C2=NS(=O)(=O)N(C)C(C(=O)N3CCN(C)CC3)=C2)cc1`: the “% Inhibition @ 10 uM” value amounted to 0.655%.

Regarding `N#CC(C#N)=CNCc1ccccc1`, the “% Inhibition @ 10 uM” value is -3.04%.

Regarding `Cc1cccc(Oc2cc(-n3nc(C)c(C#N)c3N)ncn2)c1`, the “% Inhibition @ 10 uM” value is on record as -10.5%.

Take `O=C(Cn1cc(C(=O)C2CCCCC2)c2ccccc21)NCc1ccccc1`: the “% Inhibition @ 10 uM” value was -3.13%.

For the molecule `Cc1ccc(C(=O)N2CCN(c3ccccc3)CC2)o1`, the “% Inhibition @ 10 uM” value is on record as -2.34%.

`Cc1ccccc1S(=O)(=O)Nc1nc2c(Cl)cccc2s1`: the “% Inhibition @ 10 uM” value is -3.45%.

On to `Cc1cc(C(=O)C(=O)Nc2nccs2)c(C)n1Cc1ccccc1`, for which the “% Inhibition @ 10 uM” value turned out to be 2.32%.

Consider `CCCN1C(=O)c2[nH]nc(-c3ccco3)c2C1c1ccc(O)c(OC)c1` (stereo not shown), for which the “% Inhibition @ 10 uM” value is recorded as -2.84%.

`Cc1ccccc1OCc1nc2ccccc2[nH]1`: the “% Inhibition @ 10 uM” value amounted to 2.1%.

Take `COc1ccc(CNCc2c(C(=O)O)c(C)n(Cc3cc(C)ccc3C)c2C)cc1`: the “% Inhibition @ 10 uM” value is on record as -3.67%.

Regarding `Cc1ccc(-c2cc3c4c(C)n(C5CCCCC5)c(C)c4c(C)nn3c2)o1`, the “% Inhibition @ 10 uM” value came to 3.81%.

As to `O=c1cc(O)nc(SCc2ccccc2)n1-c1ccccc1`, the “% Inhibition @ 10 uM” value was -1.05%.

As for `CCSc1ncc(Cl)c(C(=O)Nc2sc3c(c2C(=O)NCCOC)CCCC3)n1`, the “% Inhibition @ 10 uM” value was 0.569%.

On to `Cn1nc(C(=O)NCCN(Cc2ccco2)C2CCCC2)c2c1-c1ccccc1S(=O)(=O)C2`, for which the “% Inhibition @ 10 uM” value was 1.23%.

With `O=C(c1ccccc1)N1CCN(C(=O)c2ccc(Cl)cc2Cl)CC1`, the “% Inhibition @ 10 uM” value is -1.93%.
